# Results as given in ChEMBL document CHEMBL4888484, “Replenishing the malaria drug discovery pipeline: Screening and hit evaluation of the MMV Hit Generation Library 1 (HGL1) against asexual blood stage Plasmodium falciparum ,using a nano luciferase reporter read-out” (2022).
# Among all 150,000 compounds or so, about 540 (0.36%) showed an effect of 50% or more. The list shows a part of the results.
# System: Plasmodium falciparum
# Test: Primary screen in NF54 nanoGlo assay, in single point, at 2uM, 72h; a lower Z score goes with more inhibition
# Assay type: functional, Erythrocyte
# Settings: timepoint 72 hour
SMILES,% Inhibition,Z score
CC(=O)N[C@@H](CCC(N)=O)c1ncnn1Cc1ccccc1,2%,-0.43
CCC(OC1CCCC(C)C1)C(=O)Nc1nnc[nH]1 (stereo not drawn),-2%,0.3
COc1c(F)c(F)cc(C(=O)N2CC[C@@H](c3cccs3)S(=O)(=O)CC2)c1F,-6%,0.97
COc1ccc(C)cc1S(=O)(=O)N1CC[C@H](Oc2ccncn2)C1,-4%,0.6
CCCc1nnc(N2CC[C@@](O)(CC)[C@@H](O)C2)s1,3%,-0.53
Cc1ccc(C(=O)Nc2cnn(C(C)C)c2)cc1-c1cnn(C)c1,-13%,1.76
CCOC(=O)Nc1nc2c(s1)CN(C(=O)c1cc(-c3ccccc3)on1)CC2,-16%,3.25
Cc1ccc(OCCNC(C)(C)C)cc1,-8%,1.1
CCn1c(=O)c2ccnn2c2ccc(C(=O)NCCN3CCCCC3)cc21,11%,-1.97
CC(Nc1nc2ccccc2o1)C1CCCO1 (stereo not drawn),-3%,0.51
Cc1ncsc1CN(C)C[C@H]1CCN(c2ccc3nnc(C(C)(C)C)n3n2)C1,-46%,5.42
CC1CCC(Nc2ccn(CCC(N)=O)n2)C(C)C1 (stereo not drawn),-7%,0.63
Cc1ccc(C(C)NC(C)CCS(C)(=O)=O)cc1C (stereo not drawn),2%,-0.2
OCc1cc2cc(CCOCc3ccccc3)ccc2[nH]1,-13%,2.57
Cc1cc(C)nc(Nc2ccc(C(=O)Nc3ccc(C(N)=O)cc3)cc2)n1,0%,0.04
Cc1cc(C)cc(CN2CCN(c3ccnc(C)c3)CC2=O)c1,-12%,2.1
Cc1cc(CNC(=O)N(C)CCO)ccc1Cl,-4%,0.35
OCCn1nc(-c2ccco2)nc1CCc1ccc2c(c1)OCO2,-18%,2.66
Cc1c(NC(=O)N2CCC[C@@]3(CCN(C)C3)C2)cccc1C(=O)N(C)C,5%,-0.77
CC(C)(C)OC(=O)N1CC([C@H](F)C(=O)N2CC(Cc3cccc(OC(F)(F)F)c3)C2)C1,0%,-0.07
CC(C)c1nc(NCc2ccc(C(=O)O)cc2)nc(N(C)C)n1,-3%,0.52
O=C1C[C@@H](C(=O)c2ccc3c(c2)OCO3)c2c(-c3ccc(Cl)cc3)n[nH]c2N1,-18%,2.31
COCC1CN(CC(O)C(F)(F)F)CC(C)O1 (stereo not drawn),-6%,0.83
O=C(COc1ccc(Cl)cc1)N1CC[C@H](N2C(=O)CNC2=O)C1,-7%,1.24
